# Assay results from the supplement of paper PMC9174493.
# The other results are listed elsewhere or left out. Single values of this set are uncertain. Values with irradiation are relative to irradiated vehicle.
# Test system: A549-Dual
# Experiment: ISRE reporter (Lucia luciferase) activity, viability-corrected, relative to vehicle (fold change vs vehicle); higher = more activation of STING-IRF / NF-kB immune response reporter
# Conditions: 10 µM; irradiation: none
row,SMILES,ISRE reporter
1,CC(=O)NC1C(OC2C(C(=O)O)OC(OC3C4COC(O4)C(NS(=O)(=O)O)C3O)C(O)C2O)OC(CO)C(OC2CC(C(=O)O)C(OC3OC(COS(=O)(=O)O)C(OC4OC(C(=O)O)=CC(O)C4O)C(O)C3NC(C)=O)C(O)C2O)C1C (configuration not stated) [Enoxaparin sodium],0.411
2,COc1cc(O)c(C(=O)Nc2nc(C(=O)NCCN(C(C)C)C(C)C)cs2)cc1OC.Cl.O.O.O [Acotiamide hydrochloride],0.805
3,CS(=O)(=O)c1ccc(C(O)C(CF)NC(=O)C(Cl)Cl)cc1 (configuration not stated) [Florfenicol],0.617
4,N=C(N)NCCCC(N)C(=O)O (racemic) [DL-Arginine],0.641
5,CCCN1CC(C)C(O)C(C)(O)C(CC)OC(=O)C(C)C(OC2CC(C)(OC)C(O)C(C)O2)C(C)C(OC2OC(C)CC(N(C)C)C2O)C(C)(O)CC1C (configuration not stated) [Gamithromycin],0.829
6,CC(=O)OC(C)C[N+](C)(C)C.[Cl-] (configuration not stated) [Methacholine chloride],0.96
7,CC(C)(C)C(O)/C=C/c1ccc2c(c1)OCO2 (configuration not stated) [Stiripentol],0.608
8,[OH][Al]([OH])[OH] [Aluminium hydroxide],0.921
9,COc1cc2c(cc1OC)-c1cc3ccc(OC)c(OC)c3c[n+]1CC2 [Palmatine],1.62
10,Cl.c1ccc(CC2=NCCN2)cc1 [Tolazoline HCl],0.471
11,C#CCNC1CCc2ccccc21.CS(=O)(=O)O (configuration not stated) [Rasagiline Mesylate],0.757
12,Cl.N=C(N/N=C/c1ccc(Cl)cc1)N/N=C/c1ccc(Cl)cc1 [Robenidine Hydrochoride],0.961
